# The list shows a part of the results.
# Tested on: PF3D7_0420300 AP2 domain 1 (GST-tagged)
# Assay: gcPBM binding intensity (ln(normalized median fluorescence intensity)); higher = stronger DNA binding
# How it was run: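 Binding intensity is the highest Masliner-normalised natural-log median intensity over replicate spots in either probe orientation. To obtain it, GST-tagged P. falciparum DNA-binding domains made in E. coli were incubated for 1 h on an Agilent 4 × 180k array of primer-extended double-stranded 36-bp intergenic genomic probes plus negative controls. Detection used Alexa488 anti-GST antibody with scanning at 488 nm.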
row,Sequence,gcPBM binding intensity (ln)
1,ATATAGGTATAATACACACACTAATATGTAACTGTA [CACACA_site7011],9.72
2,TTCCTTCATTGGAAAAGTACACAATATTGTCGTTTA [XGTACX_site8057],9.24
3,TATGATATGTATGGAAGTACGAAGAGGGATGATCAG [XGTACX_site1677],9.35
4,TTAAAAATAAAACAAAGTACTCAAGTTATTGTCTTT [XGTACX_site1584],9.15
5,CACGCATACAGACACACACACACACCCATATATATA [CACACA_site636],10.2
6,AATATATTTTTTTTTGGTACACAAGCACATCTATAC [XGTACX_site2183],9.19
7,TTTCGATTATGTTTTTGTACGCAATATATTAATTCT [XGTACX_site3634],9.39
8,AATGTGCAGAAAAGTGGTACATATGATTGTTAAGAG [XGTACX_site1038],9.46
9,CCATGATTATTAGATTGTACATAACATACAAATTGA [XGTACX_site314],9.07
10,ATGTCATATATATGTTGTACGAGTTTGTTTATGTAT [XGTACX_site1150],9.73
11,AGTTTACATTAAATCACGCACACAAAAAAAAAAAAA [CACACA_site2419],9.3
12,TTCATTTTATAAAAAGCACACATATAGTTATATGCA [CACACA_site9228],8.97
13,TACCTTTTTTATGTTGCACACTGGGATGTTTTCTAA [CACACA_site1653],9.68
14,ATTCATATTTTTCAAGTGCGCATTAAAATATTAACC [GTGCAC_site9741],9.17
15,TTATTACGAACTCTGCAACATATATAAATAAATAAA [CACACA_negctrl_site44],8.86
16,AAAATAATATTTAATACACACATAATTACAATATAA [CACACA_site6510],9.54
17,TACGTATTCATGTATAGTACTCTTTTTTTTAATAAA [XGTACX_site3299],9.01
18,AAAGATAAAATATATACACACACATAAATACGTACA [CACACA_site8275],10.1
19,GAATAAATTAAATTCACACATAAAATACAAAATACA [CACACA_site5495],9.54
20,ATTATATTTGAATGGTGTACTATAATAATGTAGTTT [XGTACX_site8069],9.42
21,ACATATATATATATATAAATATATATGTATGTATTT [XGTACX_negctrl_site237],9.14
22,CATACACGCGGACACACACACACACGCATATATAAC [CACACA_site6427],10.4
23,CTTATATTAATTATTACACACATATATATAAATGCA [CACACA_site770],9.41

row,Sequence,gcPBM binding intensity (ln)
1,AAAGAAAATAGGTGTACACATAATAAATACAGCTAT [CACACA_site5917],9.77
2,AAAAAAAAAAAAACTAGTACATATATATAGTATGAA [XGTACX_site6279],9.21
3,AAAACAAATAAGTAAACACACATATATAATATATAT [CACACA_site2586],9.64
4,TTTATTTTTTATATATCACTTAAAAAAAAAAAAAAA [CACACA_negctrl_site249],8.41
5,GAATATAAAAGGAACGGTACAGAAAAAAAAAAAAAA [XGTACX_site3917],9.33
6,ATTTATATTTTATATACACACATGAACTTATATGGA [CACACA_site3167],9.49
7,AATATAGTCTCACATACACACATATATATTTATATA [CACACA_site2503],9.58
8,CTTTTTTTTTTATGCACACACAATTATACATTCCTT [CACACA_site3877],9.83
9,ATAACCTAATAATACACACACATGAATATATATAAT [CACACA_site4689],10
10,ATGTAATATATTATATGTACATATTTTTATGTAGAT [XGTACX_site5945],9.2
11,TTTTTAATTTAAAAAAATAATATTTTATATTCCGAA [CACACA_negctrl_site108],8.52
12,GTAAGCATCAAAAAAGGTACAGAAATTATAAATAAA [XGTACX_site6708],9.28
13,TATTTTTTATTTTTTTGTACATATTTGATAATTAAT [XGTACX_site316],9.37
14,AAATATTTATATATATGTACACATATAATATTTTTA [XGTACX_site2338],9.08
15,ATATATGTTATTATTTGTACACACACATATATATCC [XGTACX_site7657],9.92
16,ATTTCTAATATTTTTGCACACTAAACAATAAATTTC [CACACA_site3943],9.34
17,GAAAATTTATTTTTGGTGCATGTATTTATTTATTTT,9.38
18,AAAAAAAAAAGAAACACACACATATATATATATAAT [CACACA_site5052],9.85
19,TATATATATTCTTTAAAACACACGTAAAGAAGAATT [CACACA_site2718],9.34
20,CATTTATTTATATACACACACACAAAAAAAAAAAAA [CACACA_site7279],9.84
21,TGCTATATTATTATCGCACACCGTTGATTCTAAATA [CACACA_site1207],9.28
22,ATAAGTGTATAAAAATGTACGTGTATAAAAATATGT [XGTACX_site8235],9.65
23,AGTAATATAATATAAGCACACGTGTATTTATTTAGT [CACACA_site4246],9.54

row,Sequence,gcPBM binding intensity (ln)
1,TACAAAATAAAAATAATTCTTTCAAAAAATAATAAA [XGTACX_negctrl_site368],8.91
2,TGGGAGCACAGACACACACACACACCCATATATATA [CACACA_site335],10.1
3,GTATAAAAGTAATGTAGTACTTATATATTTTTATTT [XGTACX_site8975],9.1
4,TCCTTATATTGGCACACACACACAATAAAATGAAAA [CACACA_site4715],9.97
5,GGTTGCTTCAGTGAATGTACATAGTGGTAAACAAGC [XGTACX_site166],9.29
6,TGCACATTTATGTAACGTACAAAATATAATATGTTA [XGTACX_site8255],9.07
7,GTATATAATATTAGTGCACACACAAAAATGTACTAA [CACACA_site8112],9.61
8,GAAATAATAAATTAAAAATCGTTTATAACATTTAAC [CACACA_negctrl_site425],9.02
9,ATTTTCTTTCTATGCACACGCACGTATTTGCACCCA [CACACA_site3350],9.36
10,AGTTTAATATAAAATACACACTACTCTTATAAATAT [CACACA_site6803],9.23
11,CTTTTTTTTTGATGTTGTACATATATATTATATAAT [XGTACX_site1321],9.36
12,TAAGGACTAATATTTGAACACACATATAATATATAC [CACACA_site9325],9.51
13,TATATATTTGTTCACACACACACAAAAAAAAAAAAA [CACACA_site2475],9.87
14,CATATATATATATATATATATATATTTATTTATTTA [TGCATGCA_negctrl_site165],8.8
15,GTCATCAAGTATTAAGTGCATTAAAAATAAAATATA,9.05
16,TTAAAAGAAAATAACACACACAAAAAAAAAAAAAAA [CACACA_site2117],9.49
17,AACATAAGTAAGAATACATGCGGAAATTATATAGAA [TGCATGCA_site112],9.53
18,TATAAATTTAAAATGACACACACTAAAGTTATTTAA [CACACA_site6700],9.3
19,TAAATATTATAAATGATACACACTTAAAATACTCAC [CACACA_site2710],9.59
20,TCCCTTAAAATGATATGTACATAAAAATAAAAAAAA [XGTACX_site836],9.05
21,ACTAACATATATTCAACACACATATACCTTCAACCC [CACACA_site3011],9.72
22,TATATATATATATACACACACACATATATATATATA [CACACA_site774],9.72
23,CCCATTTAATATTGAGTGCATTTAAATAAATGTATT,9.14

row,Sequence,gcPBM binding intensity (ln)
1,TTTTACAAAGTATGATGTACAAGTATATATAAATAT [XGTACX_site2072],9.04
2,TACATGAATAAACTTACACACACCCATGCATACATA [CACACA_site97],9.87
3,TGAAAAGGAAAATTTTGTACATATACATCAAGGATA [XGTACX_site656],9.17
4,AAAAAAAAGAATTTACGTACTTATTATTTATATTTT [XGTACX_site5701],9.24
5,ACTTTTTATTTTTTACTATATATATATATATATATG [TGCATGCA_negctrl_site463],9.65
6,TTTTGTTTTAAAAGTACACACTTTTAATTAGATTTC [CACACA_site4788],9.15
7,AAAATACACAACATATATATATATATATATATATAT [XGTACX_negctrl_site21],9.21
8,TGATCAATGGATTTAACACACAAAAAAAAAAAAAAA [CACACA_site3845],9.11
9,ATTTATTTTTTACATTGTACATATTTATTCCTTTTA [XGTACX_site8028],9.56
10,TATAACATTTTTTTCAAAATAGCTTTAGAAATAAAG [CACACA_negctrl_site718],8.78
11,TTTTTTTTTTTTTTTGCATGCAGGTTTTTACCCCTT [TGCATGCA_site381],8.92
12,TTATTTTCAAAATGTTGTACACACAAAAAAAAAAAA [XGTACX_site3151],9.25
13,TTTTTTTTCTTCAAGCGTACTTATTTGTAGAAAAAA [XGTACX_site1728],8.73
14,TATGTATATATATAAAGTACGCAAATTTATAATAAG [XGTACX_site8744],9.35
15,ATATGTGGAAATAGAGCACACATATATATAATATAT [CACACA_site8194],9.58
16,TTCTTTTCTTTTTTCTTTTTTTTTTTCTTTTCTTTT [GTGCAC_negctrl_site630],9.46
17,AAAAAAAAAAAAAAAACATGCAAAATAATATATATA [TGCATGCA_site68],9.38
18,AGAAAAGGACATATATGTACTTATCAATATAGAAAC [XGTACX_site1042],9.38
19,TCACATATGTTCCATTGTACTTGTAGTAATTTTTTC [XGTACX_site6473],9.33
20,GTAATATGTATCCATACACACATACATTTTATTTGC [CACACA_site4640],9.48

# Reference: the supplement of paper PMC11417369
